Among all 310,000 compounds or so, about 14,000 (4.5%) showed an effect of 50% or more. Effects have a minus sign here. The list shows a part of the results.
target: human ether-à-go-go-related gene (hERG) potassium channel (human, UniProt Q12809); experiment: primary screen, population patch clamp on CHO cells stably expressing hERG
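Further: peak tail current of the secondary pulse compared with the same well before compound.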

Chain of human ether-à-go-go-related gene (hERG) potassium channel (Q12809 whole entry, looked up): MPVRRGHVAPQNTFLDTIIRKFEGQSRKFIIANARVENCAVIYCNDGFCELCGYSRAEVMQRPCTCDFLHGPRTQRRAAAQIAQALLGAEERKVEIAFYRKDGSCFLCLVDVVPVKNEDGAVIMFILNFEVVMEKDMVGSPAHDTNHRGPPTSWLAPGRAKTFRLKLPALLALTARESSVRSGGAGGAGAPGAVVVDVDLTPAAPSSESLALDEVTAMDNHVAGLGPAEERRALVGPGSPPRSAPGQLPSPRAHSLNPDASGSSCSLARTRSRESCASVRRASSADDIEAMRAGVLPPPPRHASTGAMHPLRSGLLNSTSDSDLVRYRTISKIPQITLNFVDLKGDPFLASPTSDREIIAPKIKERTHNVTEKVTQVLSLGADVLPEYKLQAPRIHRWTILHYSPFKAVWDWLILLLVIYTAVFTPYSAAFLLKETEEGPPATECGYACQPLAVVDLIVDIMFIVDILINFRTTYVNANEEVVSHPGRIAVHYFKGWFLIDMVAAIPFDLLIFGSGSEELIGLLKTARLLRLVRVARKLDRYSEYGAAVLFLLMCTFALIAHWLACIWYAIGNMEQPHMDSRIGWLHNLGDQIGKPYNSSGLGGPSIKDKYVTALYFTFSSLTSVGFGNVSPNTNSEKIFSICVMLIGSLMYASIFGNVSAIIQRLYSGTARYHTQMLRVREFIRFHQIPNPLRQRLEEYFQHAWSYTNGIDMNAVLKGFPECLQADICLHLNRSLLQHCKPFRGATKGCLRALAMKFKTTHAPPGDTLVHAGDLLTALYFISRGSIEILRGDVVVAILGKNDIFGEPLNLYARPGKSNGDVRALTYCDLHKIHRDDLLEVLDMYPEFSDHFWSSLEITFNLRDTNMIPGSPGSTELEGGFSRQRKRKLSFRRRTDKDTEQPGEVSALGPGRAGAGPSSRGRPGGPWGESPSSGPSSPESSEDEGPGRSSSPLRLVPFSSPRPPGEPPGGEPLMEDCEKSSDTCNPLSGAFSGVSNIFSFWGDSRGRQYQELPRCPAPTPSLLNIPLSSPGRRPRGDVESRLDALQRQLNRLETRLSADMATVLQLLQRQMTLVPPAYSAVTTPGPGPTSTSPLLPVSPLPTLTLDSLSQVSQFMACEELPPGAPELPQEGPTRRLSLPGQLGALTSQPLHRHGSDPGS

| SMILES | hERG current change (%, negative = inhibition) at 10uM |
| --- | --- |
| CCOC(=O)c1cc(NC(=O)N(C(C)C)C(C)C)c(C)nc1C | -4.36% |
| COc1ccc(OC)c(NC(=O)COC(=O)CNC(=O)c2ccc(OC)c(OC)c2)c1 | -14.6% |
| Cc1ccnc(NS(=O)(=O)c2ccc3ccccc3c2)n1 | 14.4% |
| CCOc1ccc(NC(=O)c2ccc(F)cc2F)cc1 | 10.8% |
| CC(/C=N/NC(=O)Cn1nccc1C)=C\c1ccc(C(C)C)cc1 | -4.51% |
| COc1cc2[nH]c(=O)c(C(=O)NCCCN3CCCCC3)c(O)c2cc1OC.Cl | -13.7% |
| O=S(=O)(NCc1cn2ccsc2n1)c1cccs1 | 15.6% |
| Cc1nc2cc(-c3cccs3)[nH]n2c(=O)c1C | 11.7% |
| COCC(=O)Nc1cccc(Br)c1 | -1.19% |
| C=CCOC(=O)C(=O)/C=C/c1csc2ccccc12 | 20.7% |
| CCCCC(Br)C(=O)Nc1ccc(S(=O)(=O)Nc2cc(C)nc(C)n2)cc1 (stereo not shown) | 8.47% |
| FC(F)(F)c1cc(Oc2ccc(Cl)cc2)ncc1-c1nnc(-c2ccc(Cl)cc2)o1 | 5.81% |
| COc1ccc(CCN2C(=NC(=O)CCC(=O)O)SC3CS(=O)(=O)CC32)cc1OC (stereo not shown) | -3.16% |
| Cc1cc(O)ccc1N/C=C/c1onc(C)c1[N+](=O)[O-] | 29.9% |
| CCOc1ccc(C=O)cc1CN1CCCCC1.Cl | -14.7% |
| CCC1CN(C(=O)NCc2cccc(OC)c2)c2ccccc2O1 (stereo not shown) | -11.1% |
| Cn1c(NCc2ccco2)nc2c1c(=O)n(Cc1ccc(Cl)cc1Cl)c(=O)n2C | 3.42% |
| O=S(=O)(c1cccc(-c2nnc(SCc3ccc(Cl)cc3)o2)c1)N1CCCCC1 | 10.7% |
| COc1ccc2c(=O)c3c(=O)n(Cc4ccco4)c(C(C)C)nc3oc2c1 | 5.12% |
| CCN=C1S/C(=C\c2cc(Br)ccc2OCC(=O)OCC)C(=O)N1CC | -0.0973% |
| COc1ccc(CCC(C)NCc2ccc(F)cc2)cc1 (stereo not shown) | -44.8% |
| COc1ccc(-n2nnnc2SC(C)C(N)=O)cc1 (stereo not shown) | 8.68% |

| SMILES | hERG current change (%, negative = inhibition) at 10uM |
| --- | --- |
| CCCN(CCC)CCCNC(=S)Nc1ccc2nc(N3CCN(CC)CC3)cc(C)c2c1 | -3.08% |
| O=C1Cc2ccccc2C(c2c(Cl)cccc2Cl)N1 (stereo not shown) | -1.82% |
| COC(=O)Cn1cc([N+](=O)[O-])nc1C | 32.3% |
| Nn1c(SCC(=O)Nc2ccc3c(c2)OCCO3)nnc1-c1cccnc1 | 0.314% |
| COc1ccc(CC(=O)N2CCN(C(=O)c3ccco3)CC2)cc1 | 10.9% |
| COc1ccc(C)cc1NC(=O)CO/N=C(\N)CC(=O)Nc1ccccc1OC | -3.14% |
| Cc1ccc(NC(=S)N(CCCN(C)C)Cc2cc3cc4c(cc3[nH]c2=O)OCO4)cc1 | -41.7% |
| COc1cccc(CCN2CCC(CNS(=O)(=O)c3cc(-c4cc(C)no4)ccc3C)CC2)c1 | -77.2% |
| NC(=O)C1(N2CCCCC2)CCN(c2nc(-c3ccc(Br)cc3)cs2)CC1 | -7.11% |
| O=C(CNC(=O)C12CC3CC(CC(C3)C1)C2)N1CCN(S(=O)(=O)/C=C/c2ccccc2)CC1 | -10.5% |
| Cc1ccc(-c2nc3c(c(=O)c4ccccc4n3C)c(=O)n2-c2ccc(F)cc2)cc1 | 14.2% |
| O=C(/C=C/c1ccccc1)/C=C/c1ccccc1 | 8.17% |
| O=C(O)c1ccc2c(c1)S(=O)(=O)c1cc(Cl)ccc1C2=O | 19.5% |
| O=C(NC(=S)Nc1cccc(C(F)(F)F)c1)c1csnn1 | 31.4% |
| O=C(c1ccco1)N1CCN(C(=O)C2c3ccccc3Oc3ccccc32)CC1 | 17.5% |
| Cc1ccc(CS(=O)(=O)CCC(=O)NCCCN2CCCC2=O)cc1 | 14.7% |
| Cc1cc(NC(=O)c2cc([N+](=O)[O-])cc([N+](=O)[O-])c2C)no1 | 15.7% |
| c1ccc2c(c1)CCCN2Cc1nnnn1CC1CCCO1 (stereo not shown) | 7.06% |
| COc1ccc(N(C(=O)c2cccc([N+](=O)[O-])c2)S(=O)(=O)c2cccs2)cc1 | -1.14% |
| CCN(CC)C(=O)CSc1nnc(CCN)o1.Cl | 18.5% |
| COc1ccc(NC(=O)c2cc3c(COC(C)=O)cnc(C)c3oc2=Nc2cccc(C(=O)O)c2)c(OC)c1 | 18.8% |

— paper PMC4336329 (PLoS ONE, 2015)
